# According to the supplement of paper PMC9446081:
# Screen size: about 39,000 compounds; about 220 (0.56%) showed activity. Some of the results follow.
# Tested on: Escherichia coli K-12 BW25113
# Experiment: relative growth (OD600 normalised to plate interquartile mean) (fraction); higher = less growth inhibition, active = 0.2 or less
# Details: 50 µM; LB; incubation time: overnight (16-24 h)
# 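Note: static incubation at 37 °C against the wild-type strain, values averaged over two biological replicates.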
row,Compound,relative growth
1,C[C@@H]1CCCCO[C@H](CN(C)C(=O)Nc2cccc3ccccc23)[C@H](C)CN([C@H](C)CO)C(=O)c2cc(NS(=O)(=O)c3ccc(Cl)cc3)ccc2O1,inactive: 1.04
2,CCCNC(=O)N[C@@H]1C=C[C@@H](CC(=O)N2CCN(C)CC2)O[C@@H]1CO,inactive: 0.979
3,C[C@@H]1CCCCO[C@@H](CN(C)C(=O)Nc2cccc3ccccc23)[C@@H](C)CN([C@H](C)CO)C(=O)c2cc(NS(=O)(=O)c3ccc(F)cc3)ccc2O1,inactive: 1.03
4,CC(C)NC(=O)N(C)C[C@H]1Oc2c(NS(=O)(=O)c3ccc(F)cc3)cccc2C(=O)N([C@H](C)CO)C[C@H]1C,inactive: 1
5,COc1ccc(S(=O)(=O)Nc2cccc3c2O[C@@H](CN(C)Cc2ccc(Cl)c(Cl)c2)[C@@H](C)CN([C@@H](C)CO)C3=O)cc1,inactive: 1.01
6,C[C@@H]1CN([C@@H](C)CO)C(=O)c2cccc(NC(=O)Nc3ccc(C(F)(F)F)cc3)c2O[C@H]1CN(C)S(C)(=O)=O,inactive: 0.928
7,C[C@@H]1CCCCO[C@@H](CN(C)C(=O)Nc2cccc3ccccc23)[C@@H](C)CN([C@@H](C)CO)C(=O)c2cc(NS(=O)(=O)c3ccc(Cl)cc3)ccc2O1,inactive: 1.03
8,C[C@@H]1CCCCO[C@H](CN(C)S(C)(=O)=O)[C@@H](C)CN([C@H](C)CO)C(=O)c2cc(NC(=O)c3ccncc3)ccc2O1,inactive: 0.969
9,C[C@@H]1CN([C@@H](C)CO)C(=O)c2cccc(NC(=O)Nc3ccccc3)c2O[C@@H]1CN(C)Cc1ccc(Cl)c(Cl)c1,inactive: 1.01
10,O=C(N/N=C/[C@H](O)[C@@H](O)[C@H](O)[C@H](O)CO)c1ccccc1O,inactive: 1
11,CC1=C(C(=O)O)N2C(=O)C(NC(=O)C(N)C3=CCC=CC3)C2SC1 (stereo unspecified),inactive: 1.07
12,COc1cccc(NC(=O)N(C)C[C@H]2OCc3ccccc3-c3c(n(C)c4ccccc34)C(=O)N([C@H](C)CO)C[C@H]2C)c1,inactive: 1.03
13,Cc1ccc(S(=O)(=O)Nc2ccc3c(c2)C(=O)N([C@H](C)CO)C[C@@H](C)[C@@H](CN(C)C(=O)C2CCCCC2)OCCCC[C@@H](C)O3)cc1,inactive: 0.999
14,O=C1c2ccccc2[C@](Cc2ccccc2I)(C(=O)NCCN2CCOCC2)[C@H](c2ccc(CO)cc2)N1C1CCCCC1,inactive: 1.02
15,C[C@H](CO)N1C[C@H](C)[C@@H](CN(C)Cc2ccc(-c3ccccc3)cc2)Oc2ccc(NC(=O)Nc3ccc(C(F)(F)F)cc3)cc2C1=O,inactive: 1.02
16,COc1cccc(S(=O)(=O)Nc2ccc3c(c2)[C@H]2C[C@@H](CC(=O)NCCc4ccccc4)O[C@@H](CO)[C@H]2O3)c1,inactive: 0.983
17,COc1ccc(CN(C)C[C@H]2Oc3c(NC(=O)Nc4ccc(C(F)(F)F)cc4)cccc3C(=O)N([C@H](C)CO)C[C@H]2C)cc1,inactive: 0.966
18,O=C(CNC(=O)c1ccc(Cl)cc1)NO,inactive: 0.98

row,Compound,relative growth
1,COc1ccc(S(=O)(=O)N(C)C[C@H]2Oc3c(NS(=O)(=O)c4ccccc4)cccc3C(=O)N([C@@H](C)CO)C[C@H]2C)cc1,inactive: 1.01
2,C[C@@H]1CN([C@H](C)CO)C(=O)c2cc(NC(=O)Cn3cnnn3)ccc2O[C@@H]1CN(C)Cc1ccc2c(c1)OCO2,inactive: 0.973
3,Cc1ccc(S(=O)(=O)N(C)C[C@@H]2Oc3ccc(NC(=O)CCCN(C)C)cc3CC(=O)N([C@H](C)CO)C[C@H]2C)cc1,inactive: 1.03
4,C[C@@H]1CCCCO[C@@H](CN(C)CC2CCCCC2)[C@H](C)CN([C@@H](C)CO)C(=O)c2cc(NC(=O)Nc3ccc4c(c3)OCO4)ccc2O1,inactive: 0.982
5,C[C@@H]1CN([C@@H](C)CO)C(=O)c2cc(NC(=O)Nc3ccc(F)cc3)ccc2O[C@@H](C)CCCCO[C@H]1CN(C)Cc1ccc(C(F)(F)F)cc1,inactive: 0.986
6,CC(C)NC(=O)Nc1ccc2c(c1)CC(=O)N([C@H](C)CO)C[C@H](C)[C@@H](CN(C)C(=O)NC1CCCCC1)O2,inactive: 0.983
7,C[C@@H]1CCCCO[C@@H](CN(C)S(=O)(=O)c2ccc(F)cc2)[C@@H](C)CN([C@@H](C)CO)C(=O)c2cc(NC(=O)c3ccccc3)ccc2O1,inactive: 0.969
8,C[C@H]1CN([C@@H](C)CO)C(=O)c2cccc(NC(=O)c3nc4ccccc4s3)c2O[C@@H]1CN(C)S(C)(=O)=O,inactive: 0.983
9,COc1ccc(S(=O)(=O)Nc2ccc3c(c2)CC(=O)N([C@H](C)CO)C[C@H](C)[C@H](CN(C)C)O3)cc1,inactive: 0.962
10,Cc1ccc(S[C@]2(C(=O)NCC(F)(F)F)CC(=O)N(Cc3cc(C(F)(F)F)cc(C(F)(F)F)c3)[C@@H]2c2ccc(CO)cc2)cc1,inactive: 1
11,Cc1ccc(S(=O)(=O)Nc2ccc3c(c2)C(=O)N([C@@H](C)CO)C[C@H](C)[C@@H](CN(C)S(=O)(=O)c2ccc(C)cc2)OCCCC[C@@H](C)O3)cc1,inactive: 1
12,COc1ccc(/C=C/C(=O)C=C(O)/C=C/c2ccc(OC)c(OC)c2)cc1OC,inactive: 0.998
13,COc1ccc(CN(C)C[C@@H]2OCCCC[C@H](C)Oc3ccc(NS(=O)(=O)c4ccc(OC)cc4)cc3C(=O)N([C@@H](C)CO)C[C@H]2C)cc1,inactive: 0.999
14,COCC(=O)Nc1ccc2c(c1)C(=O)N(C)C[C@H](OC)[C@H](C)CN(C(=O)Cc1ccccn1)[C@@H](C)CO2,inactive: 0.984
15,C[C@@H]1ON(c2cccc(C(=O)OC(C)(C)C)c2)[C@H](c2ccc(Br)cc2)[C@H]1C(=O)N1C(=O)OC[C@H]1Cc1ccccc1,inactive: 1.01
16,C[C@@H]1CN([C@@H](C)CO)C(=O)Cc2cc(NS(C)(=O)=O)ccc2O[C@@H]1CN(C)C(=O)Nc1ccc(C(F)(F)F)cc1,inactive: 0.97
17,CS(=O)(=O)N1CC(=O)Nc2ccccc21,inactive: 1.01
18,COc1ccc(S(=O)(=O)N(C)C[C@@H]2OCCCC[C@@H](C)Oc3ccc(NS(=O)(=O)c4cn(C)cn4)cc3C(=O)N([C@@H](C)CO)C[C@@H]2C)cc1,inactive: 0.987
